Test results reported in PubChem BioAssay AID1030 (National Center for Advancing Translational Sciences (NCATS), 2008).
Screen size: about 220,000 compounds; about 16,000 (7.3%) were called active. This list was built around the results that the source calls inconclusive (neither active nor inactive); the mix of calls is not that of the screen. Calls come from the whole dose curve; as a rule, active = well fitted inhibition curve with a large enough effect (not every such curve was filed as active); inconclusive = small, poorly fitted or top-dose-only effect, or another doubt; inactive = no such curve, though single readings can be large or run the other way. No potency is given beside an inconclusive call; the fits are too rough.

Biological target: Aldehyde dehydrogenase 1A1 (Homo sapiens) (UniProt P00352)
Chain of UniProt P00352 (P00352 whole entry, looked up): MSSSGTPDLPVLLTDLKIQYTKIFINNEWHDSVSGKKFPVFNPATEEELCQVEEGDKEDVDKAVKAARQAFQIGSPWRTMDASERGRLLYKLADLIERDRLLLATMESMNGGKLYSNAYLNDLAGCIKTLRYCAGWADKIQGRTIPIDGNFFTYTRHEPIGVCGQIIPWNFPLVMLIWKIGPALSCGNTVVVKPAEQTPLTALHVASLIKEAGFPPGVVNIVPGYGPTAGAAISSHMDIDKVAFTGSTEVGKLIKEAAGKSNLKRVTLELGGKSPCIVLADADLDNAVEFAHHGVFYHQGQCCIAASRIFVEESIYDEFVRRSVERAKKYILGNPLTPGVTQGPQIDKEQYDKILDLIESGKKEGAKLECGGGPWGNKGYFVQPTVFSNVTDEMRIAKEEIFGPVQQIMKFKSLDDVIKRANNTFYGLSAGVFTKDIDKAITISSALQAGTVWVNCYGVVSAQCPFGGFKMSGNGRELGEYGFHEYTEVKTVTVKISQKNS
Test: qHTS Assay for Inhibitors of Aldehyde Dehydrogenase 1 (ALDH1A1)
Conditions: Purified ALDH1A1, NADH fluorescence, propionaldehyde substrate; series mostly up to 75.3 µM
Potency is the fitted concentration of half-maximal effect; tags give direction and shape of the fitted curve.

Q: For `FC(F)(F)c1ccccc1-c1ccc2ncnc(N3CCOCC3)c2c1`, which Potency is on record?
A: The Potency was inconclusive [inhibitor, partial curve].

Q: Which Potency does the source give for `CN(Cc1ccccc1)c1ncnc2c1cnn2-c1ccccc1` here?
A: Its Potency is inconclusive [inhibitor, single point].

Q: Which Potency does the source give for `COc1cc(/C=C2/SC(=S)N(c3ccccc3)C2=O)ccc1Oc1nc(N2CCOCC2)nc(N2CCOCC2)n1` here?
A: Its Potency is active: 0.398 µM.

Q: `CN1CCN(NC(=S)Nc2ccccc2)CC1` was tested. Which Potency did it give?
A: The Potency was “inactive”.

Q: With `Cc1ccc(C(=O)CC2(O)C(=O)N(C)c3ccccc32)o1` (configuration not stated) as the compound, how does the Potency read?
A: Its Potency is active: 25.1 µM.

Q: For `Cc1onc(-c2ccccc2)c1C(=O)Nc1cccc(C#N)c1`, which Potency is on record?
A: Its Potency is inconclusive [inhibitor, single point].

Q: `O=C(NCc1ccncc1)c1ccc(Br)o1` was tested. Which Potency did it give?
A: The Potency was active: 3.55 µM.

Q: `O=C1c2cccc3cccc(c23)C(=O)N1CCN1CCN(CC(O)COc2ccccc2)CC1` (configuration not stated) was tested. Which Potency did it give?
A: Its Potency is inconclusive [inhibitor, single point].

Q: With `COCCN(C(=O)C1CC1)c1nnc(-c2ccc(C)cc2)s1` as the compound, how does the Potency read?
A: The Potency was inconclusive [inhibitor, single point].

Q: For `O=C(O)c1cc(-c2ccc(Cl)s2)nc2ccccc12`, which Potency is on record?
A: The Potency was inconclusive [inhibitor, partial curve].

Q: `CC(C)CNC(=S)NC(=O)c1ccc(F)cc1` was tested. Which Potency did it give?
A: The Potency was inconclusive [inhibitor, single point].

Q: `CC(C)C[C@H](NC(=O)c1nc[nH]c1C(=O)NC1CCN(C(=O)OC(C)(C)C)CC1)C(=O)OC(C)(C)C` was tested. Which Potency did it give?
A: Its Potency is inconclusive [inhibitor, single point].

Q: `COc1ccc(-c2[nH]ncc2CN(C)Cc2cccnc2)c(F)c1` was tested. Which Potency did it give?
A: Its Potency is inconclusive [inhibitor, partial curve].

Q: Which Potency does the source give for `COC(=O)c1c(NC(=O)COC(=O)c2ccc(O)cc2)sc2c1CCCCC2` here?
A: The Potency was inconclusive [inhibitor, single point].

Q: With `CC(C)(C)[C@@H]1C=C(C(=O)N2CCN(Cc3ccc4c(c3)OCO4)CC2)O[C@H](OCc2ccc(CO)cc2)C1` as the compound, how does the Potency read?
A: Its Potency is “inactive”.

Q: Which Potency does the source give for `CCCCCCCCn1c(=O)c(C(=O)OCC)c(O)c2ccccc21` here?
A: Its Potency is inconclusive [inhibitor, single point].

Q: Which Potency does the source give for `O=C(NCc1ccco1)C1CCN(C(=O)c2cc3sccc3n2Cc2ccc(F)cc2)CC1` here?
A: Its Potency is active: 4.47 µM.

Q: For `Cc1c(C(=O)NCc2ccc3c(c2)OCO3)sc2nc(-c3ccccc3)cn12`, which Potency is on record?
A: Its Potency is inconclusive [inhibitor, single point].

Q: Which Potency does the source give for `O=C(c1ccc2nc3ccc(Cl)cc3c(=O)n2c1)N1CCOCC1` here?
A: The Potency was inconclusive [inhibitor, partial curve].

Q: `CN(N)C(=S)Nc1ccc(Cl)cc1` was tested. Which Potency did it give?
A: The Potency was “inactive”.

Q: `Cc1ccc(-c2n[nH]c(=S)n2Cc2ccccc2)cc1` was tested. Which Potency did it give?
A: Its Potency is inconclusive [inhibitor, partial curve].

Q: How did the Potency turn out when `O=C(Cn1cc(C(=S)N2CCOCC2)c2ccccc21)N1CCOCC1` was run?
A: The Potency was “inactive”.

Q: For `Cc1ccc(OCC(=O)Nc2ccc(S(=O)(=O)Nc3onc(C)c3C)cc2)cc1`, which Potency is on record?
A: The Potency was “inactive”.

Q: With `Cc1ccc(S(=O)(=O)N(CC(=O)NCCSCc2ccco2)c2ccc(F)cc2)cc1` as the compound, how does the Potency read?
A: The Potency was active: 28.2 µM.

Q: Which Potency does the source give for `O=C(CSC1CC(=O)N(CCc2ccccc2)C1=O)Nc1ccc(Cl)cc1` (configuration not stated) here?
A: The Potency was inconclusive [inhibitor, full curve].

Q: With `CC1=CC(C2CC(=O)N(c3ccc(C)cc3)C2=O)CC2C(=O)N(c3ccc(C)cc3)C(=O)C12` (configuration not stated) as the compound, how does the Potency read?
A: Its Potency is inconclusive [inhibitor, single point].

Q: `Cc1nn(Cc2ccccc2Cl)c(C)c1NC(=O)CCCn1nc([N+](=O)[O-])c(Cl)c1C` was tested. Which Potency did it give?
A: The Potency was active: 8.91 µM.

Q: Which Potency does the source give for `CCOC(=O)c1nc(NCc2ccccc2F)c2ccccc2n1` here?
A: Its Potency is “inactive”.

Q: Which Potency does the source give for `O=C(CCCn1c(SCC(=O)c2ccc(O)c(O)c2)nc2ccccc2c1=O)NCC1CCCO1` (configuration not stated) here?
A: The Potency was active: 17.8 µM.

Q: With `Nc1nc2c3ccccc3nc(C3CC3)n2n1` as the compound, how does the Potency read?
A: The Potency was “inactive”.

Q: For `CC(C)CCNC(=O)c1ccc(C2SCC(=O)N2Cc2ccco2)cc1` (configuration not stated), which Potency is on record?
A: Its Potency is inconclusive [inhibitor, single point].

Q: Which Potency does the source give for `CCN(CC)S(=O)(=O)c1cccc(C(=O)N/N=C(\C)c2ccc(O)cc2O)c1` here?
A: Its Potency is inconclusive [inhibitor, partial curve].

Q: For `Cc1cc(C)c2c(N)c(C(=O)NCC3CCCCC3)sc2n1`, which Potency is on record?
A: The Potency was inconclusive [inhibitor, single point].

Q: Which Potency does the source give for `CN1C/C(=C/c2cccnc2)C(=O)/C(=C/c2cccnc2)C1` here?
A: The Potency was “inactive”.

Q: `COC(=O)c1ccc(Oc2c(C(F)(F)F)oc3c(CN4CCN(C)CC4)c(O)ccc3c2=O)cc1` was tested. Which Potency did it give?
A: The Potency was inconclusive [inhibitor, partial curve].

Q: `C[C@@H](NCCc1ccc(O)cc1)[C@@H](O)c1ccc(O)cc1` was tested. Which Potency did it give?
A: Its Potency is “inactive”.

Q: How did the Potency turn out when `NCCCCCc1nnc(SCC(N)=O)o1` was run?
A: The Potency was “inactive”.

Q: For `CCc1ccc(-n2c(SCc3cc(=O)n4cc(Br)ccc4n3)nc3[nH]ncc3c2=O)cc1`, which Potency is on record?
A: The Potency was inconclusive [inhibitor, single point].

Q: How did the Potency turn out when `COc1ccccc1Cc1nnnn1CC(=O)O` was run?
A: Its Potency is “inactive”.

Q: With `O=C(O)c1nn(-c2cccc(Cl)c2)c(=O)cc1O` as the compound, how does the Potency read?
A: Its Potency is inconclusive [inhibitor, single point].

Q: Which Potency does the source give for `Cc1cccc(C(=O)N2CCC(Cc3ccccc3)CC2)c1[N+](=O)[O-]` here?
A: Its Potency is inconclusive [inhibitor, partial curve, poor fit].

Q: With `Cc1cccc(Nc2ncnc3ccc(Br)cc23)c1` as the compound, how does the Potency read?
A: The Potency was “inactive”.

Q: For `COc1cc2[nH]c3c(=O)n(CCN4CCCCC4)cnc3c2cc1OC`, which Potency is on record?
A: Its Potency is inconclusive [inhibitor, single point].

Q: With `N#Cc1cccc(-c2cncnc2NCc2cccnc2)c1` as the compound, how does the Potency read?
A: Its Potency is inconclusive [inhibitor, single point].

Q: How did the Potency turn out when `COc1nc(OC)nc(Oc2ccc(Cl)cc2[N+](=O)[O-])n1` was run?
A: The Potency was “inactive”.

Q: `O=C(/C=C/c1ccc(N2CCCCC2)c([N+](=O)[O-])c1)c1ccc(O)cc1` was tested. Which Potency did it give?
A: Its Potency is active: 25.1 µM.

Q: `O=C(NC(=S)Nc1cccc2cccnc12)c1ccccc1` was tested. Which Potency did it give?
A: The Potency was inconclusive [inhibitor, single point].
